Out of some 330,000 compounds screened, about 560 (0.17%) were called active. The inconclusive results got no clear call from the source; some entries with a clear call stand among them for comparison. The call rests on the fitted dose curve; in most records, active means well fitted inhibition curve with a large enough effect; inconclusive means small, poorly fitted or top-dose-only effect, or effect the other way; inactive means flat fitted curve, though single readings scatter. No potency is given beside an inconclusive call; the fits are too rough.
biological target: ATP-dependent 6-phosphofructokinase (Trypanosoma brucei brucei) (UniProt O15648); assay: qHTS Assay to Find Inhibitors of T. brucei phosphofructokinase; further: nearly all actives have a fitted effect of over 60% in size; conditions: T. brucei PFK, ADP-Glo luminescence; series mostly up to 57.5 µM
Outline: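 Luminescent ADP detection (ADP-Glo, two-step: ATP depletion then ADP-to-ATP conversion for luciferase) reported PFK activity after 45 min room-temperature reaction of 1.25 nM enzyme with 0.5 mM F6P and 0.1 mM ATP at pH 8.0.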
Potency means the concentration at half of the fitted maximal effect; tags describe the fitted curve by direction and shape.

Sequence of UniProt O15648 (O15648 whole entry, looked up): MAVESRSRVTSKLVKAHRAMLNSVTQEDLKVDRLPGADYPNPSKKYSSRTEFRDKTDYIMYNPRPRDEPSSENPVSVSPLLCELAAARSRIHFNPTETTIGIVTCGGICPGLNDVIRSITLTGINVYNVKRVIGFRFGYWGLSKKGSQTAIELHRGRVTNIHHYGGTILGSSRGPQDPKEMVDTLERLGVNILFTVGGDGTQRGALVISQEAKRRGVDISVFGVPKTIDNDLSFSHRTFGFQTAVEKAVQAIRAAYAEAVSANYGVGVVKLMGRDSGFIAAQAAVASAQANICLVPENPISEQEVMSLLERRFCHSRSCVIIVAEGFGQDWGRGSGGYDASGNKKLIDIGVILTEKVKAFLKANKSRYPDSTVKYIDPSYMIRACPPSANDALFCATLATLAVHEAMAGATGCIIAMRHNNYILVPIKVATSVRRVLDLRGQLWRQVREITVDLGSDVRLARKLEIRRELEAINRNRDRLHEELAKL

| SMILES | Potency |
| --- | --- |
| Clc1nssc1=Nc1ccc(Br)cc1 | inconclusive [falling, single point] |
| CCOc1ccc(Cn2nnc(C(=O)NCc3ccccc3)c2N)cc1 | inconclusive [falling, single point] |
| Oc1ccccc1C(=S)N1CCN(c2cccc(Cl)c2)CC1 | inactive |
| CCn1nc(C)c(/C=N/NC(=O)c2ccc3c(c2)c(C)c(C)n3Cc2ccccc2)c1C | inconclusive [falling, single point] |
| O=C(c1ccccc1)C(Cn1cncn1)C(Sc1ccccc1)c1ccccc1 (configuration not stated) | inconclusive [falling, single point] |
| CC(C)Cc1nnc(NC(=O)C2CC(=O)N(c3ccc4c(c3)OCCO4)C2)s1 (configuration not stated) | inconclusive [falling, single point] |
| COc1ccc(/C=C2\SC(=O)N(CCc3nnc(N)s3)C2=O)cc1 | inconclusive [activator, single point] |
| Cc1noc(NS(=O)(=O)c2ccc(NC(=O)c3cnc4scc(C)n4c3=O)cc2)c1C | inconclusive [activator, partial curve] |
| CN(CC(=O)Nc1ccc(F)c(F)c1F)C(=O)CCc1nc2sc3c(c2c(=O)[nH]1)CCCC3 | inconclusive [falling, single point] |
| O=C(O)c1cccc(NS(=O)(=O)c2ccc(-c3ccc(S(=O)(=O)Nc4cccc(C(=O)O)c4)cc3)cc2)c1 | inconclusive [activator, single point] |
| O=C(CCCCCn1c(SCc2ccncc2)nc2ccccc2c1=O)NCc1ccco1 | inconclusive [falling, single point] |
| CC(C)(CNC(=O)CO/N=C1/C=C2CCC3C(C(O)C[C@@]4(C)C3CC[C@]4(O)C(=O)CO)[C@@]2(C)CC1)C(O)C(=O)O (some centres not stated) | inactive |
| O=C(O)c1cc(S(=O)(=O)Nc2cccc3ccccc23)c(Cl)cc1Cl | inconclusive [falling, single point] |
| CC1(C)CC(=O)C=C(NCc2ccc(Cl)c(Cl)c2)C1 | inconclusive [falling, single point] |
| Cc1ncc([N+](=O)[O-])n1CC(=O)Nc1ccc(F)c(F)c1 | inconclusive [falling, partial curve] |
| Cc1cc(NC(=O)Cn2nc([N+](=O)[O-])c(Br)c2C)no1 | active: 26.9 µM |
| C=C1c2c(Cl)ccc(O)c2C(O)=C2C(=O)[C@]3(O)C(O)=C(C(N)=O)C(=O)[C@@H](N(C)C)[C@@H]3[C@@H](O)C12 (some centres not stated) | inconclusive [falling, full curve] |
| COC(=O)c1ccc(CSc2nc3scc(-c4cccs4)c3c(=O)[nH]2)o1 | inconclusive [falling, single point] |
| CCC(C)(C)c1nnc(NC(=O)C2CCN(C(=O)c3ccco3)CC2)s1 | inconclusive [falling, full curve, poor fit] |
| Nc1c(C(=O)NC2CC2)sc2nc3c(c(-c4ccco4)c12)CC/C3=C/c1ccco1 | active: 6.75 µM |
| Cc1csc(NC(=O)c2ccncc2)n1 | inactive |

| SMILES | Potency |
| --- | --- |
| CC(=O)N1c2ccc(S(=O)(=O)N3CCC(C(=O)NCc4ccc(Cl)cc4)CC3)cc2CC1C (configuration not stated) | inconclusive [falling, partial curve] |
| CC(=O)Nc1ccc(S(=O)(=O)Nc2cccc(S(=O)(=O)N(C)c3ccccc3)c2)cc1 | inconclusive [activator, partial curve] |
| COc1c(Cl)cc(Cl)cc1/C=N/n1cnnc1 | inconclusive [falling, single point] |
| COc1ccccc1N1C(=O)C2ON(c3ccccc3)C(c3ccc(N(C)C)cc3)C2C1=O (configuration not stated) | inactive |
| Cc1[nH]nc2c1C(c1cc(Br)cs1)C(C#N)=C(N)O2 (configuration not stated) | inconclusive [falling, partial curve] |
| CCOc1ccc(OCCn2c(=S)[nH]c3c(N)ncnc32)cc1 | inconclusive [falling, partial curve] |
| Cc1ccc(NC(=O)CN(C)C(=O)c2cc(-c3ccco3)nc3ccccc23)cc1 | inconclusive [falling, full curve] |
| Nc1nc(SCc2ccc([N+](=O)[O-])cc2)c2ncn(C3OC(CO)C(O)C3O)c2n1 (configuration not stated) | active: 12 µM |
| O=C(COC(=O)/C=C/c1ccco1)Nc1ncc(Cl)cc1Cl | inconclusive [falling, single point] |
| O=C(Nc1ccc(F)c(Cl)c1)C1CC(=O)N(Cc2ccco2)C1 (configuration not stated) | inconclusive [falling, single point] |
| CCN1C(=O)c2ccccc2S(=O)c2ccc(C(=O)NCc3ccc(OC)cc3)cc21 (configuration not stated) | inactive |
| O=C(NCc1ccc(Cl)c(Cl)c1)c1ccc2c(c1)OCO2 | active: 23.9 µM |
| CSc1ccc(C(=S)N2CCN(C)CC2)cc1 | inconclusive [falling, partial curve] |
| COCCNc1c2c(nc3c(-c4ccccc4)c(C)nn13)CCCC2 | inactive |
| CCOC(=O)CN1NC2(CCC(C(C)(C)C)CC2)NC1=S (configuration not stated) | inconclusive [falling, single point] |
| CCOC(=O)c1ccc(NC(=O)Cn2cnc3cc(C)c(C)cc32)cc1 | inconclusive [falling, single point] |
| CC(=O)Nc1ccc(-n2cc(-c3ccccc3)[nH]c2=S)cc1 | inconclusive [falling, full curve] |
| O=c1c2ccccc2sn1-c1cc(S(=O)(=O)N2CCOCC2)ccc1N1CCOCC1 | active: 13.5 µM |
| O=C(O)c1c(C(=O)O)c(-c2ccc(Cl)c(Cl)c2)n2c1CSC2 | inconclusive [falling, single point] |
| COc1ccccc1NC(=O)Nc1ccnn1C1CCN(C(=O)c2cscn2)CC1 | inactive |
| O=C(CCCl)Nc1nnc(SCC(=O)NC2CCCC2)s1 | inconclusive [falling, single point] |
